In all, about 150,000 compounds went through this assay and about 540 (0.36%) showed an effect of 50% or more. This is one part of the list.

The subject of this experiment is Plasmodium falciparum. The experiment is described as follows: Primary screen in NF54 nanoGlo assay, in single point, at 2uM, 72h; a lower Z score goes with more inhibition. It is filed as functional, Erythrocyte. The conditions noted are these: timepoint 72 hour.
For the molecule `CC(C)CNC(=O)C1CN(C(=O)c2cccs2)CC1c1ccc(F)cc1` (configuration not stated), the “% Inhibition” value is on record as -11% and the Z score was 1.17.

As to `CC(NC(=O)c1cccnc1O)C1CCCO1` (configuration not stated), the “% Inhibition” value is -4% and the Z score is given as 0.56.

On to `Cc1ncc(CN2CCC(CO)(CCCc3ccccc3)CC2)s1`, for which the “% Inhibition” value is -34% and the Z score is given as 3.02.

On to `O=C(Nc1nc2ccccc2s1)C(=O)N1CCC(Cc2ccccc2)CC1`, for which the “% Inhibition” value is on record as -14% and the Z score turned out to be 2.17.

On to `CC(NC(=O)CN1C(=O)C2CCCN2C(=O)c2ccc(F)cc21)c1ccccc1` (configuration not stated), for which the “% Inhibition” value turned out to be 5% and the Z score was -0.79.

As for `C[C@H](Oc1ccc(-c2ccccc2)c(F)c1)c1ccn(C(=O)c2ccc(F)cc2)n1`, the “% Inhibition” value is given as 0% and the Z score was determined as 0.03.

`CCN(C)c1ccnc(NCc2cnc3c(c2)CCC3)n1`: the “% Inhibition” value was -6% and the Z score is 1.

For the molecule `CN1CCN(C(=O)c2coc(CN(Cc3ccc4c(c3)OCO4)Cc3ccccc3C(F)(F)F)n2)CC1`, the “% Inhibition” value is given as -3% and the Z score was found to be 0.52.

As to `CNc1nc(-c2cncnc2)ncc1F`, the “% Inhibition” value was found to be 0% and the Z score is -0.08.

For the molecule `O=C1COc2cc(C(=O)N3CCC3)ccc2N1`, the “% Inhibition” value is recorded as -11% and the Z score was 1.6.

On to `O=C(O)C1C2C=CC(C2)C1C(=O)Nc1cccc2ncccc12` (configuration not stated), for which the “% Inhibition” value came out at 34% and the Z score was -4.93.

Consider `C[C@@H](C(=O)Nc1ccccc1)N(C)Cc1cnccn1`, for which the “% Inhibition” value came out at 1% and the Z score is given as -0.14.

`O=C(NCc1ccc(Br)cc1)NC1CC2OCCCC12` (configuration not stated): the “% Inhibition” value is -11% and the Z score worked out at 1.4.

As for `CC1(C)C[C@H](c2ccccc2)CN1Cc1c(C(=O)O)oc2ccccc12`, the “% Inhibition” value turned out to be 29% and the Z score is listed as -3.25.

Take `CCCS(=O)(=O)NC[C@H]1CCN(Cc2ccc3nonc3c2)C1`: the “% Inhibition” value was 0% and the Z score is on record as 0.02.

Consider `CC1(C(=O)N2CC(C3CCCC3)C2)CC2CC2C1` (configuration not stated), for which the “% Inhibition” value came to 5% and the Z score was -0.72.

Consider `CCOc1ccccc1C(=O)Nc1ccc2c(c1)C(=O)N(C1CCCCC1)C2=O`, for which the “% Inhibition” value amounted to 1% and the Z score is -0.11.

On to `COc1ccc(OC)c(N2CCN(CC(=O)NCc3ccccc3OC)C2=O)c1`, for which the “% Inhibition” value was -6% and the Z score is recorded as 1.11.

For the molecule `Cc1ccc(-n2[nH]c(C(=O)NCc3cccc(OCC(F)F)c3)cc2=O)cc1`, the “% Inhibition” value is recorded as -9% and the Z score was 1.05.

Take `CC(C)(C)c1cnc(CNc2ccc(N3CCCC3=O)cc2)o1`: the “% Inhibition” value is 7% and the Z score is -1.01.

In the case of `O=C(Cc1cnn(-c2ccccc2)c1)NCCc1ccc(F)cc1`, the “% Inhibition” value was -5% and the Z score worked out at 0.94.

Consider `CC1(C)C[C@@H](CNC(=O)CCc2ccsc2)CCO1`, for which the “% Inhibition” value is -3% and the Z score is 0.45.

With `O=C(NCC1CCCCC1)[C@H]1CCCN(C(=O)c2cccs2)C1`, the “% Inhibition” value came to 3% and the Z score is -0.44.

On to `COC1(CNC(=O)Nc2c(F)cc(F)cc2Cl)CCC1`, for which the “% Inhibition” value is -5% and the Z score is 0.61.

Regarding `CC1CC(C)CN(c2cncc(OCCO)n2)C1` (configuration not stated), the “% Inhibition” value is -16% and the Z score is on record as 2.41.

Regarding `COCCN1CC2(CCC1=O)CCN(c1nc(C)cc(C3CCC3)n1)CC2`, the “% Inhibition” value is reported as -10% and the Z score is 1.14.

With `COc1ccc2cc(C(=O)N3CCC(C(C)C(=O)NCCCN4CCCCC4C)CC3)[nH]c2c1` (configuration not stated), the “% Inhibition” value was -16% and the Z score is recorded as 1.48.

For the molecule `O=C(c1ncoc1C1CC1)N(Cc1ccncc1)Cc1ccncc1`, the “% Inhibition” value is on record as 2% and the Z score is reported as -0.4.

Take `Cc1ncsc1CCN(C)Cc1cc(=O)n2c3c(cccc13)CCC2`: the “% Inhibition” value was found to be 11% and the Z score was -1.5.

With `O=C(Nn1cnnc1)c1csc2c1CCCC2`, the “% Inhibition” value is reported as -13% and the Z score was 1.83.

Turning to `CCCCN(C)C(=O)C1CCN(Cc2ccccn2)CC1`, the “% Inhibition” value was determined as 4% and the Z score is -0.64.

Take `CN(C)c1cc(N2CCC3(CC2)C[C@H](c2ccccc2)C(=O)N3C)ncn1`: the “% Inhibition” value stood at 1% and the Z score was -0.27.

Consider `COc1ccc(OC)c(S(=O)(=O)Nc2cnn(Cc3ccc(C)cc3)c2)c1`, for which the “% Inhibition” value is -13% and the Z score is on record as 1.75.

For `CCN1CC(=O)N[C@H]2CN(C(=O)CN(C)C)CC[C@@H]2OCc2cccc(c2)Oc2cccc(c2)CC1=O`, the “% Inhibition” value is listed as -5% and the Z score is 0.97.

On to `Cc1nc2c(s1)CCC[C@@H]2Nc1ncccc1C(N)=O`, for which the “% Inhibition” value is given as -14% and the Z score turned out to be 1.76.

Consider `c1nc(N2CCCN(c3ccc4nncn4n3)CC2)c2sccc2n1`, for which the “% Inhibition” value was -12% and the Z score amounted to 1.58.

`Cc1ccccc1-n1ncc2c1NC(=O)C[C@]21C(=O)N(CC(N)=O)c2ccccc21`: the “% Inhibition” value is listed as 1% and the Z score is recorded as -0.14.

For `O=C(NCc1ccc2c(c1)OCO2)[C@@H]1CC(c2ccccc2)=NO1`, the “% Inhibition” value is -9% and the Z score is given as 0.77.

With `Cc1cccc(NC(=O)N2Cc3c(C)nn(-c4ccccc4)c3-n3cccc3[C@H]2c2ccccc2)c1`, the “% Inhibition” value is reported as -8% and the Z score is reported as 1.52.

Consider `CC1CCN(CN2C(=O)N[C@](C)(c3ccc(C#N)cc3)C2=O)CC1`, for which the “% Inhibition” value is on record as -6% and the Z score was found to be 0.89.

For `O=C(c1ccc(-c2ccc(Cl)cn2)cc1)N1CCS(=O)(=O)CC1`, the “% Inhibition” value was -14% and the Z score is recorded as 2.58.

As a reminder, the % Inhibition is the change of the read-out against control, counted positive when it falls.

(Values after ChEMBL document CHEMBL4888484, “Replenishing the malaria drug discovery pipeline: Screening and hit evaluation of the MMV Hit Generation Library 1 (HGL1) against asexual blood stage Plasmodium falciparum ,using a nano luciferase reporter read-out” (2022).)
